Test results from a collection of fitness landscapes (doi:10.1126/science.1257360).
The other results are listed elsewhere or left out.

B1: PhoQ; a variant is named by its letters at X, in order, P23837 (parent)
chain: MKKLLRLFFPLSLRVRFLLATAAVVLVLSLAYGMVALIGYSVSFDKTTFRLLRGESNLFYTLAKWENNKLHVELPENIDKQSPTMTLIYDENGQLLWAQRDVPWLMKMIQPDWLKSNGFHEIEADVNDTSLLLSGDHSIQQQLQEVREDDDDAEMTHSVAVNVYPATSRMPKLTIVVVDTIPVELKSSYMVWSWFIYVLSANLLLVIPLLWVAAWWSLRPIEALAKEVRELEEHNRELLNPATTRELTSLVRNLNRLLKSERERYDKYRTTLTDLTHSLKTPLXXLQXXLRSLRSEKMSVSDAEPVMLEQISRISQQIGYYLHRASMRGGTLLSRELHPVAPLLDNLTSALNKVYQRKGVNISLDISPEISFVGEQNDFVEVMGNVLDNACKYCLEFVEISARQTDEHLYIVVEDDGPGIPLSKREVIFDRGQRVDTLRPGQGVGLAVAREITEQYEGKIVAGESMLGGARMEVIFGRQHSAPKDE

Variants of: B1
Assay: enrichment ratio after two sorts for PhoP signalling (ratio (wild type AVST 3.29)); higher = more functional
Settings: with PhoP (E. coli)
With HRGH the enrichment ratio was ≤ 0.25. For TQYE, the enrichment ratio was 35.7. For GHFD, the enrichment ratio was ≤ 0.25. NWNR was tested, and the enrichment ratio was ≤ 0.25. In the case of IHAT, the enrichment ratio is reported as ≤ 0.25. Work on TRTL yielded an enrichment ratio of 9.57. In the case of SNHG, the enrichment ratio is reported as ≤ 0.25. For EHYY, the enrichment ratio was ≤ 0.25. In the case of LFAI, the enrichment ratio is reported as ≤ 0.25. For ECNP, the enrichment ratio was ≤ 0.25. Work on GEVI yielded an enrichment ratio of 7.6. With CSYP the enrichment ratio was ≤ 0.25. WCHR was tested, and the enrichment ratio was ≤ 0.25. With DNLI the enrichment ratio was ≤ 0.25. With VPQS the enrichment ratio was ≤ 0.25. With DTNR the enrichment ratio was ≤ 0.25. In the case of NWEC, the enrichment ratio is reported as ≤ 0.25. With HSPR the enrichment ratio was ≤ 0.25. YRIS was tested, and the enrichment ratio was ≤ 0.25. For SFRW, the enrichment ratio was ≤ 0.25. For ALNK, the enrichment ratio was ≤ 0.25. For GVKQ, the enrichment ratio was ≤ 0.25. For QKCA, the enrichment ratio was ≤ 0.25. For KHSD, the enrichment ratio was ≤ 0.25. In the case of DCDH, the enrichment ratio is reported as ≤ 0.25. With FGMP the enrichment ratio was ≤ 0.25. TAYW showed an enrichment ratio of 2.46. TFRR was tested, and the enrichment ratio was ≤ 0.25. KKVV was tested, and the enrichment ratio was ≤ 0.25. For GIHI, the enrichment ratio was ≤ 0.25. TFKI was tested, and the enrichment ratio was ≤ 0.25. RQHL was tested, and the enrichment ratio was ≤ 0.25. With RVVE the enrichment ratio was ≤ 0.25. SKMM was tested, and the enrichment ratio was 24.1. With GPSL the enrichment ratio was ≤ 0.25. YWPF was tested, and the enrichment ratio was ≤ 0.25. In the case of RKFK, the enrichment ratio is reported as ≤ 0.25. With SCNR the enrichment ratio was ≤ 0.25. NEYT was tested, and the enrichment ratio was ≤ 0.25. For FQKE, the enrichment ratio was ≤ 0.25. In the case of MINV, the enrichment ratio is reported as ≤ 0.25. In the case of WKHF, the enrichment ratio is reported as ≤ 0.25. HFKF was tested, and the enrichment ratio was ≤ 0.25. With LIWW the enrichment ratio was ≤ 0.25. SERT was tested, and the enrichment ratio was ≤ 0.25. With IYSN the enrichment ratio was ≤ 0.25. CHVM was tested, and the enrichment ratio was ≤ 0.25. GLHK was tested, and the enrichment ratio was ≤ 0.25. YMVD was tested, and the enrichment ratio was ≤ 0.25. NPKW was tested, and the enrichment ratio was ≤ 0.25. PFWW was tested, and the enrichment ratio was ≤ 0.25. SYWE was tested, and the enrichment ratio was ≤ 0.25. For ISDE, the enrichment ratio was ≤ 0.25. FLEN was tested, and the enrichment ratio was ≤ 0.25. In the case of ERWQ, the enrichment ratio is reported as ≤ 0.25. MGYM showed an enrichment ratio of 8.17. For NEVA, the enrichment ratio was ≤ 0.25. For VQEY, the enrichment ratio was ≤ 0.25. Variant AKAA has an enrichment ratio of 4.65. FDMV was tested, and the enrichment ratio was ≤ 0.25. For INPV, the enrichment ratio was ≤ 0.25. For EYHQ, the enrichment ratio was ≤ 0.25. For SGYG, the enrichment ratio was ≤ 0.25. In the case of MHWV, the enrichment ratio is reported as ≤ 0.25. IATW was tested, and the enrichment ratio was ≤ 0.25. QALI showed an enrichment ratio of 5.29. In the case of RRAE, the enrichment ratio is reported as ≤ 0.25. With QPLF the enrichment ratio was ≤ 0.25. In the case of YDEA, the enrichment ratio is reported as ≤ 0.25. In the case of MCDF, the enrichment ratio is reported as ≤ 0.25. In the case of ICSF, the enrichment ratio is reported as ≤ 0.25. With EMLV the enrichment ratio was ≤ 0.25. In the case of RMLK, the enrichment ratio is reported as 1.36. For DPCF, the enrichment ratio was ≤ 0.25. With FKYA the enrichment ratio was ≤ 0.25. In the case of THIP, the enrichment ratio is reported as ≤ 0.25. For LVEF, the enrichment ratio was ≤ 0.25. For TNQW, the enrichment ratio was ≤ 0.25. For TGIW, the enrichment ratio was ≤ 0.25. With VDFY the enrichment ratio was ≤ 0.25. EGDH was tested, and the enrichment ratio was ≤ 0.25. For MDWM, the enrichment ratio was ≤ 0.25. RAEH was tested, and the enrichment ratio was ≤ 0.25. RSNK was tested, and the enrichment ratio was ≤ 0.25. For DSPK, the enrichment ratio was ≤ 0.25. With IPGV the enrichment ratio was ≤ 0.25. With FWPM the enrichment ratio was ≤ 0.25. NPGT was tested, and the enrichment ratio was ≤ 0.25. In the case of LPPI, the enrichment ratio is reported as ≤ 0.25. With MARR the enrichment ratio was ≤ 0.25. SWKV was tested, and the enrichment ratio was ≤ 0.25. In the case of HLWF, the enrichment ratio is reported as ≤ 0.25. IWHM was tested, and the enrichment ratio was ≤ 0.25. With WQPL the enrichment ratio was ≤ 0.25. For SYFR, the enrichment ratio was ≤ 0.25. For ECPL, the enrichment ratio was ≤ 0.25. For VYYH, the enrichment ratio was ≤ 0.25. With ALMV the enrichment ratio was 5.76. In the case of PHRW, the enrichment ratio is reported as ≤ 0.25. KIRQ was tested, and the enrichment ratio was ≤ 0.25. FVWE was tested, and the enrichment ratio was ≤ 0.25. WQQA was tested, and the enrichment ratio was ≤ 0.25. With YKFI the enrichment ratio was ≤ 0.25. In the case of HFCN, the enrichment ratio is reported as ≤ 0.25. For SEPT, the enrichment ratio was ≤ 0.25. HGNS was tested, and the enrichment ratio was ≤ 0.25. For PEPR, the enrichment ratio was ≤ 0.25. ANYQ was tested, and the enrichment ratio was ≤ 0.25. For LGYH, the enrichment ratio was ≤ 0.25. For SGIV, the enrichment ratio was 7.69. In the case of NEPQ, the enrichment ratio is reported as ≤ 0.25. With HIYA the enrichment ratio was ≤ 0.25. For MHWP, the enrichment ratio was ≤ 0.25. SFQP was tested, and the enrichment ratio was ≤ 0.25. YCMD was tested, and the enrichment ratio was ≤ 0.25. With RGVA the enrichment ratio was ≤ 0.25. For KYHV, the enrichment ratio was ≤ 0.25. Work on WSLS yielded an enrichment ratio of 0.37. In the case of RRYT, the enrichment ratio is reported as ≤ 0.25. In the case of WDWK, the enrichment ratio is reported as ≤ 0.25. RPWI was tested, and the enrichment ratio was ≤ 0.25. IIMC was tested, and the enrichment ratio was ≤ 0.25. For FQIS, the enrichment ratio was ≤ 0.25. For NPCH, the enrichment ratio was ≤ 0.25. With KEMN the enrichment ratio was ≤ 0.25. Variant GNLV has an enrichment ratio of 11.9. RMHQ was tested, and the enrichment ratio was ≤ 0.25. For SQAG, the enrichment ratio was 25.9. For VLIW, the enrichment ratio was ≤ 0.25. For FSCP, the enrichment ratio was ≤ 0.25. MYVH was tested, and the enrichment ratio was ≤ 0.25. With AHNR the enrichment ratio was ≤ 0.25. For KKDT, the enrichment ratio was ≤ 0.25. For VIGN, the enrichment ratio was ≤ 0.25. In the case of SMDS, the enrichment ratio is reported as ≤ 0.25. For QPRD, the enrichment ratio was ≤ 0.25. For VKYF, the enrichment ratio was ≤ 0.25. In the case of WFVI, the enrichment ratio is reported as ≤ 0.25. With DETR the enrichment ratio was ≤ 0.25. AAPL gave an enrichment ratio of 0.392. In the case of RYCQ, the enrichment ratio is reported as ≤ 0.25. In the case of FQLL, the enrichment ratio is reported as 5.35. GRHN was tested, and the enrichment ratio was ≤ 0.25. With DAPE the enrichment ratio was ≤ 0.25. For LDSL, the enrichment ratio was ≤ 0.25. TEQE was tested, and the enrichment ratio was ≤ 0.25. For YMFF, the enrichment ratio was ≤ 0.25. With FCGP the enrichment ratio was ≤ 0.25. In the case of VHLA, the enrichment ratio is reported as ≤ 0.25. For PLLY, the enrichment ratio was ≤ 0.25. With NLRS the enrichment ratio was ≤ 0.25. FWQA was tested, and the enrichment ratio was ≤ 0.25. DNTS was tested, and the enrichment ratio was ≤ 0.25. WQKF was tested, and the enrichment ratio was ≤ 0.25. WFSN was tested, and the enrichment ratio was ≤ 0.25. In the case of YHGM, the enrichment ratio is reported as ≤ 0.25. WKAR was tested, and the enrichment ratio was ≤ 0.25. NNLT was tested, and the enrichment ratio was ≤ 0.25. With HRVR the enrichment ratio was ≤ 0.25. QAIG was tested, and the enrichment ratio was ≤ 0.25. In the case of DLMK, the enrichment ratio is reported as ≤ 0.25. With CIVI the enrichment ratio was ≤ 0.25. With MNLW the enrichment ratio was ≤ 0.25. In the case of SMGL, the enrichment ratio is reported as 5.54. With VWSK the enrichment ratio was ≤ 0.25. With GWCI the enrichment ratio was ≤ 0.25. With TPAR the enrichment ratio was ≤ 0.25. In the case of KCIK, the enrichment ratio is reported as ≤ 0.25. FLRH was tested, and the enrichment ratio was ≤ 0.25. For RQRL, the enrichment ratio was ≤ 0.25. For DAFG, the enrichment ratio was ≤ 0.25. PPQD was tested, and the enrichment ratio was ≤ 0.25. With KSMK the enrichment ratio was ≤ 0.25. LPQH was tested, and the enrichment ratio was ≤ 0.25. In the case of PEQC, the enrichment ratio is reported as ≤ 0.25. With WETN the enrichment ratio was ≤ 0.25. HVMK was tested, and the enrichment ratio was ≤ 0.25. In the case of STTS, the enrichment ratio is reported as 8.49. With WKNG the enrichment ratio was ≤ 0.25. With HEEV the enrichment ratio was ≤ 0.25. In the case of WNLQ, the enrichment ratio is reported as ≤ 0.25. For LDTD, the enrichment ratio was ≤ 0.25. LICK was tested, and the enrichment ratio was ≤ 0.25. For NGAW, the enrichment ratio was ≤ 0.25. For HVFQ, the enrichment ratio was ≤ 0.25. FIWH was tested, and the enrichment ratio was ≤ 0.25. KSCC was tested, and the enrichment ratio was ≤ 0.25. With WMFT the enrichment ratio was ≤ 0.25. EFEL was tested, and the enrichment ratio was ≤ 0.25. For MYDQ, the enrichment ratio was ≤ 0.25. WFAL was tested, and the enrichment ratio was ≤ 0.25. For YASF, the enrichment ratio was ≤ 0.25. NWCR was tested, and the enrichment ratio was ≤ 0.25. In the case of RDYL, the enrichment ratio is reported as ≤ 0.25. With PDEL the enrichment ratio was ≤ 0.25.
